# Measurements taken from PubChem BioAssay (NCATS).
# This list was built around the results that the source calls inconclusive (neither active nor inactive); the mix of calls is not that of the screen. Potencies of inconclusive entries are left out as doubtful fits. Active and inactive are the calls of the source. The call rests on the fitted dose curve; in most records, active means well fitted inhibition curve with a large enough effect; inconclusive means small, poorly fitted or top-dose-only effect; inactive means flat fitted curve, though single readings scatter.
# Molecular target: Aldehyde dehydrogenase, mitochondrial (Homo sapiens) (UniProt P05091)
# Assay: qHTS for Inhibitors of the Aldehyde Dehydrogenase Family (ALDH2) Primary screen (AID 2061308); further: nearly all actives have a fitted effect of over 55% in size;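 on activity change, negative = inhibition: plate controls were vehicle for no effect and reference inhibitor for full effect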
# Settings: ALDH2 enzyme inhibition qHTS, 1536-well; series mostly up to 56 µM; activity change, negative = inhibition: at the top concentration
# Potency means the concentration at half of the fitted maximal effect; tags describe the fitted curve by direction and shape.
SMILES,Potency,"activity change, negative = inhibition"
COc1cccc(-c2nc(SC)nc3sc(C(=O)NC(C)(C)C)c(N)c23)c1,"inconclusive [inhibitor, partial curve]",
C[C@@H](NC(c1ccc(F)cc1)c1ccc2cccnc2c1O)c1ccccc1 (stereo partly specified),"inconclusive [inhibitor, partial curve, poor fit]",
CC(C)C(CO)Nc1nc(Nc2ccc(C(=O)O)c(Cl)c2)c2ncn(C(C)C)c2n1 (stereo unspecified),"inconclusive [inhibitor, single point]",
NC(=O)C1CCN(c2nc(-c3cccc(C(F)(F)F)c3)cs2)CC1,,inactive: -1.1%
CCC(C)C(=O)OC1CC(C)C=C2C=CC(C)C(CCC(O)CC(O)CC(=O)O)C21 (stereo unspecified),,inactive: 0.843% [at 28 µM]
COc1ccc(C2(O)c3c(ccc4c3OC(C)(CCC=C(C)C)C=C4)NC(=O)C2OC)cc1 (stereo unspecified),"inconclusive [inhibitor, partial curve, poor fit]",
Cc1ccc(S(=O)(=O)Nc2cnccc2C(=O)Nc2nc(-c3nc4ccccc4s3)cs2)cc1,,inactive: 5.81%
O=C(Nc1ncnc2c1C(c1ccccc1)c1c(ccc3ccccc13)O2)c1ccccc1 (stereo unspecified),"inconclusive [inhibitor, partial curve, poor fit]",
COc1ccc(C[C@H](N)C(=O)N[C@@H]2[C@H](O)[C@H](n3cnc4c(N(C)C)ncnc43)O[C@@H]2CO)cc1,,inactive: -6.36%
COc1cc(-c2ccc3ncnc(NCc4cccs4)c3c2)cc(OC)c1OC,"inconclusive [inhibitor, single point]",
CC1=C(C(=O)OC2OC(COC3OC(CO)C(O)C(O)C3O)C(O)C(O)C2O)C(C)(C)CCC1 (stereo unspecified),,inactive: -3.66% [at 28 µM]
